Data as given in the supplement of paper PMC3334620.
Whole data set: some 33,000 sequences, median “E-score (-0.5 to 0.5)” near -0.013, cut for the highest 2% near 0.3. Some of the results follow.

Biological target: T1, Msn1 (UniProt P22148)
T1 sequence: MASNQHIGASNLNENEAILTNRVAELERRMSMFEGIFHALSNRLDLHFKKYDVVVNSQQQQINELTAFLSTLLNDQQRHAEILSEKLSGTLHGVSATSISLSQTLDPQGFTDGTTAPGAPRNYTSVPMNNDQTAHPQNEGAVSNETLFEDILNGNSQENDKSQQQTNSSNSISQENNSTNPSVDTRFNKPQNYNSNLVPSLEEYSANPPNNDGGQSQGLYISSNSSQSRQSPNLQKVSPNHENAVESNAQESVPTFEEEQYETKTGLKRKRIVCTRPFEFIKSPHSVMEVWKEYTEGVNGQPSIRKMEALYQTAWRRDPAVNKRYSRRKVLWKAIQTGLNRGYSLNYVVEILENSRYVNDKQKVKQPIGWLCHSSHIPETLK
Experiment: PBM E-score (8-mer binding enrichment) (E-score (-0.5 to 0.5)); higher = stronger / more preferred TF binding; most listed sequences are background and not binding sites
Conditions: protein concentration: 200 nM; construct: GST-full length
Procedure, shortened: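 Yeast transcription factors, full-length or as DNA-binding domains, were expressed with a GST tag using PURExpress in vitro transcription/translation. At about 100-200 nM they were applied to universal all-10-mer Agilent arrays, double-stranded by primer extension on fresh or once-stripped slides. Fluorescent anti-GST detected bound protein, and masliner normalised the scans. E-scores for ungapped eight-base words, pooled with reverse complements, came from the Universal PBM Analysis Suite.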

Sequence	PBM E-score
ACCTCCAC	-0.239
ACTGATCT	-0.0345
CAGCACTC	-0.0524
ATCGGGTC	0.0173
ATTCTTAA	0.00993
CCGGGAAC	-0.0326
CCCTTGCC	-0.258
CATCGCCG	-0.132
ACCCCTTC	-0.234
CCACCGGC	-0.226
GATTTTGC	-0.129
GCGACACC	-0.0671
CGTCTTTA	0.125
CGAATTGC	0.0894
AGGTACCG	-0.085
GGACTATA	-0.0918
GAATCTGC	-0.134
TCGCGGAA	0.118
CCGACCGA	-0.117
CTACCCCC	-0.397
GAGCCGCA	-0.165
ATTAGCAC	-0.0652
GGACTGCC	-0.185
ACAGCGCA	-0.0465
ATACGGAT	-0.0481

Sequence	PBM E-score
ATCCGGCG	0.0331
AGTTTACA	0.0257
AGCTACAG	-0.256
AAATCCAT	0.12
ATGTGAAT	0.023
CCAAGCGC	0.00958
AAAGAAGC	0.0953
CCTCCTTC	-0.359
CCGACTCC	0.0391
GGTAATCA	0.0578
TAAAAGGA	0.156
CTTGCGTC	-0.0529
GACGTGGA	0.0663
AAGTAGCC	-0.0783
GCGAATTA	0.0826
AGAGAGAC	-0.0618
AACATTTC	0.0651
ACAATTGG	0.105
GAGCTTGC	-0.243
GACGCGCA	0.0562
AATGACGC	0.0958
AGTGAGCA	-0.138
ATCGAGAG	-0.0865
TATCATAA	0.0748
CGAACCGC	0.0556

Sequence	PBM E-score
CGACGCGC	0.166
AGGGGTAA	-0.205
AACACCGG	0.115
CGAGGCGC	-0.0872
AACCGGGG	-0.168
CCTGTAGC	-0.205
CTCTGGGC	-0.187
GCCTTAAC	-0.117
AGAGCGTA	-0.221
CTTGTGCA	-0.00054
ACCCTACC	-0.0991
TACGATGA	-0.0286
CCACTGAC	-0.0384
GATATCAC	-0.0842
CGTTGCAC	-0.0751
AATTCGAC	-0.242
ACAGTTCG	0.0949
CGCACCGA	-0.0211
CCGTTTCG	-0.0884
ACAAGCTC	0.0907
CGAAGGAC	0.106
CACTGTCG	-0.198
GGCCAGCC	-0.275
AATCAGAA	-0.0428
GGACTGAC	-0.0899

Sequence	PBM E-score
ATCTCCAT	0.0448
AATTTGAG	0.017
ATTTATTA	0.132
TTTGAAAA	0.222
GACTAGTA	-0.0872
ACTATTTC	0.101
ACCCCCCG	-0.207
TCCATCCA	-0.00245
TCCTTCAA	-0.0355
ACGATGTG	0.0996
CATTCTCC	0.0977
AGCTACGA	-0.11
AAGGCGGG	-0.293
CTCAGCCC	-0.302
GTCGCTCA	-0.0121
TCTGTACA	0.172
CCTAGTCC	-0.0342
AGATCTGA	0.0378
ACGCGTCG	0.203
CGATTTTC	0.0625
CGCGTGTA	0.114
CCTCTGCG	-0.147
AGTATTGA	0.0166
AAACGACA	0.178
ACGTAAAG	0.0462

Sequence	PBM E-score
GATAGATA	0.0784
GATCAGGA	-0.11
ACAGGACT	-0.0485
AAGATGGT	-0.068
GATTGCAC	0.0495
CGAATTGA	0.0333
TGTGAAAA	0.139
AAGGAACT	0.0303
ACATATAG	0.267
CTCCACCC	-0.277
GTCAGGGA	-0.0927
TACGGATA	0.0192
AGCATAAC	-0.0992
GCTCGGTA	-0.153
ATTGACTC	0.0316
ATGTTCGA	0.0589
CAAAATAA	0.113
ACGTCCTC	0.0204
AGATACGC	-0.167
GATGACCA	0.0847
ATTCTACC	0.0219
CACATATC	0.0551
ATCTGAGA	0.0879
ATACAAGC	-0.0673
CGACTGGC	-0.241

Sequence	PBM E-score
ACATGTGA	0.113
CAGGGTGG	-0.352
CTGTTGAC	0.0769
ACTTTATA	0.158
CGACCTAG	0.0563
AATACACC	0.0912
AGGAATGG	-0.109
GATCATAC	0.0678
AGACTTCC	-0.108
CTTTGTCA	0.311
ACCGCAAG	-0.0142
ATAACGTC	0.0296
GCTTGAAA	0.0109
GCGCTTCC	-0.0102
GCCCCAAA	-0.137
GGCAGACA	0.079
TCGCTTCA	0.106
TCTCTACA	-0.0107
GCGGTCCC	-0.188
ATGAAAGC	0.12
AGGCACGA	-0.126
TTAGGGAA	-0.0343
CAGAGAAC	-0.146
CCTCGATA	0.0693
GCTTCCTA	-0.0319

Sequence	PBM E-score
AACAAACG	0.0707
AGTCTGGA	0.193
GACTGCCA	0.0949
GCCGCCCA	-0.112
ACGTGCCC	-0.0491
AGTCAAAG	-0.147
ACGCACAA	0.0214
AATGAAGG	-0.0295
CGGATTAC	-0.0248
CACGCCTA	-0.044
CCTAGAGC	-0.184
GGCTTTCA	0.0705
CGTTGGAG	-0.0599
GTTTCACA	0.0254
CAGATTTC	-0.0498
ACAGTTTA	0.0633
GGGGATAC	-0.121
CAAGTCAC	-0.0288
GAGCACCC	-0.291
CGCAACGC	0.0454
GCGCACAC	0.0127
CTGTAAGA	0.025
CCGTCTAA	-0.0789
AAGGCGAG	-0.169
GTTGAAAA	0.0587
